This is one part of the list.
Key:
[1] = test system: HSkMC (human skeletal muscle cells); assay: cytotoxicity call (relative viability < 0.9); settings: 10 µM
[2] = test system: HepG2; assay: cytotoxicity call (relative viability < 0.9); settings: 10 µM
[3] = test system: S. aureus RN4220; assay: growth inhibition call (relative growth <= 0.2); settings: 50 µM

Structure (SMILES) | cytotoxicity call [1] | cytotoxicity call [2] | growth inhibition call [3]
O=C(C[C@@H]1CC[C@@H]2[C@H](COC[C@@H](O)CN2C(=O)c2ccc3c(c2)OCO3)O1)NCCN1CCCCC1 | inactive | inactive | inactive
Cc1ccc(S(=O)(=O)N(C)C[C@@H]2Oc3c(NS(=O)(=O)c4ccccc4)cccc3C(=O)N([C@@H](C)CO)C[C@H]2C)cc1 | inactive | inactive | inactive
COc1ccc(S(=O)(=O)N(C)C[C@H]2Oc3ccc(NC(=O)Cn4cnnn4)cc3C(=O)N([C@H](C)CO)C[C@H]2C)cc1 | inactive | inactive | inactive
CC(C)CC#Cc1ccc2c(c1)O[C@@H](CN(C)C(=O)c1ccccn1)[C@@H](C)CN([C@H](C)CO)S2(=O)=O | inactive | inactive | inactive
Cc1noc(C)c1S(=O)(=O)N(C)C[C@@H]1Oc2c(NC(=O)C3CCCCC3)cccc2C(=O)N([C@H](C)CO)C[C@@H]1C | inactive | inactive | inactive
C[C@@H]1CN([C@@H](C)CO)C(=O)Cc2cc(NC(=O)Nc3cccc4ccccc34)ccc2O[C@@H]1CN(C)S(=O)(=O)c1cccs1 | inactive | active | inactive
CCc1c(Cl)c(O)c(Cl)c(O)c1C(=O)O[C@H]1[C@H](O)[C@H](OC)[C@H](OC/C2=C\C=C\C[C@H](O)/C(C)=C/[C@H](CC)[C@@H](O[C@@H]3OC(C)(C)[C@@H](OC(=O)C(C)C)[C@H](O)[C@@H]3O)/C(C)=C/C(C)=C/C[C@@H]([C@@H](C)O)OC2=O)O[C@@H]1C | active | inactive | inactive
COc1ccc(NC(=O)Nc2ccc3c(c2)C(=O)N([C@@H](C)CO)C[C@@H](C)[C@@H](CN(C)Cc2ccncc2)OCCCC[C@@H](C)O3)cc1 | inactive | inactive | inactive

Source: the antibiotic and cytotoxicity screens of Wong et al. (2023)
